Test results published in PubChem BioAssay AID485281 (National Center for Advancing Translational Sciences (NCATS), 2010).
“And” between values parts separate entries of the source, which are not always exact repeats. Equal values may be shown once. About 260 (0.074%) of roughly 350,000 compounds were called active. Inconclusive means that the source gave no clear call. Such entries were picked first, then a sample of the others. Calls come from the whole dose curve; as a rule, active = well fitted inhibition curve with a large enough effect; inconclusive = small, poorly fitted or top-dose-only effect; inactive = no such curve, though single readings can be large or run the other way. A potency beside an inconclusive call is a rough fit, not a confirmed value.

target: Ferritin light chain (Equus caballus) (UniProt P02791); assay: qHTS Assay for Identification of Novel General Anesthetics; conditions: apoferritin/1-aminoanthracene competitive binding, fluorescence; activity change, negative = displacement: at 77.5 µM (top of the series); note: nearly all actives have a fitted effect of over 20% in size
UniProt P02791, sequence (P02791 whole entry, looked up): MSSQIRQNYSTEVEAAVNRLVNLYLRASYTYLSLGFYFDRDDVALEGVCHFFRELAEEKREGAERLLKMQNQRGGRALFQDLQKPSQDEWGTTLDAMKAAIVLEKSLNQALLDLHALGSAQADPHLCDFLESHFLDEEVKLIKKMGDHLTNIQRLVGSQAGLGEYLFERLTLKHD
Summary of the method: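 Apoferritin-based anesthetic binding model; compound displacement of fluorescent 1-AMA measured as endpoint fluorescence after 10 minutes at room temperature, scaled to free-ligand and complex controls.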
% is set by controls: 0 for no effect and ±100 for the full control effect; potency is the fitted concentration of half-maximal effect; tags give direction and shape of the fitted curve.

| SMILES | Potency | activity change, negative = displacement |
| --- | --- | --- |
| COc1ccc(F)c(-c2nc(CN3CCC(c4ccccc4)CC3)c(C)o2)c1 | inconclusive: 28.2 µM [inhibitor, single point] | – |
| Cc1ccc(N2C(=O)CC(Cc3cc(C)cc(C)c3)C2=O)cc1 (stereo not drawn) | – | inactive: -17.5% |
| Cc1[nH]c2ccc(C(=O)N3CCCCC3)cc2c1C | inconclusive: 22.4 µM [inhibitor, partial curve] | – |
| COc1ccc(-c2cc(C(F)(F)F)nc(SCC(=O)NCCc3ccccc3)n2)cc1OC | inconclusive: 20 µM [inhibitor, partial curve] | – |
| Cc1c(C(=O)NCCSCc2c(Cl)cccc2Cl)cccc1[N+](=O)[O-] | inconclusive: 14.1 µM [inhibitor, partial curve] | – |
| Cc1ccc(NC(=O)c2cc(S(=O)(=O)N3CCc4ccccc43)ccc2F)cc1Cl | – | inactive: -14.9% |
| CCOC(=O)C(=O)N1CCN(c2cc3c(cc2[N+](=O)[O-])n(C)c(=O)n3C)CC1 | – | inactive: -11.9% |
| Cc1ccc2c(=O)c(C(=O)c3cccc(Cl)c3)cn(CC(=O)Nc3ccc4c(c3)OCCO4)c2n1 | inconclusive: 2.82 µM [inhibitor, full curve, poor fit] | – |
| COc1ccc(-c2oc(NC(C)=O)c(C#N)c2-c2ccc(OC)cc2)cc1 | inconclusive: 17.8 µM [inhibitor, partial curve] | – |
| COc1ccc(C(c2c(C)[nH]n(-c3ccccc3)c2=O)c2c(C)[nH]n(-c3ccccc3)c2=O)cc1OC | – | inactive: -4.16% |
| O=C(Nc1cc(F)ccc1F)N1CCC(CN2CCCC2)CC1 | – | inactive: 3.79% |
| COc1ccc(C)cc1S(=O)(=O)N1CCCC(C(=O)NCc2ccccn2)C1 (stereo not drawn) | – | inactive: -9.26% |
| COc1ccc(C2CC(O)(c3ccccc3)Oc3cc(OC)ccc32)cc1 (stereo not drawn) | inconclusive: 15.8 µM [inhibitor, partial curve] and inconclusive: 39.8 µM [inhibitor, single point] | – |
| Cc1ccc(NC(=O)C(C)Sc2nc(=O)cc(N)n2-c2ccccc2)cc1 (stereo not drawn) | inconclusive: 39.8 µM [inhibitor, single point] | – |
| C=CCn1c(=O)c2ccccc2n2c(SCc3nc(N)nc(Nc4ccccc4C)n3)nnc12 | inconclusive: 31.6 µM [inhibitor, partial curve] | – |
| CCOC(=O)c1cccc(NC(=O)CCn2nc(C)c(S(=O)(=O)N3CCCCC3)c2C)c1 | inconclusive: 35.5 µM [inhibitor, partial curve] | – |
| O=C(Cc1ccc(NS(=O)(=O)c2ccc(F)cc2)cc1)NCc1ccccc1 | inconclusive: 31.6 µM [inhibitor, partial curve] | – |
| Brc1ccc(Oc2nnnn2-c2ccccc2)cc1 | – | inactive: -5.73% |
